Measured values from the antibiotic and cytotoxicity screens of Wong et al. (2023).
This is one part of the list.

Tests used:
HSkMC = human skeletal muscle cells; test: cytotoxicity call (relative viability < 0.9); conditions: 10 µM
HepG2 = test: cytotoxicity call (relative viability < 0.9); conditions: 10 µM
S. aureus RN4220 = test: growth inhibition call (relative growth <= 0.2); conditions: 50 µM

| Compound | cytotoxicity call (HSkMC) | cytotoxicity call (HepG2) | growth inhibition call (S. aureus RN4220) |
| --- | --- | --- | --- |
| C[C@H](CO)N1C[C@H](C)[C@@H](CN(C)C(=O)Cc2ccncc2)Oc2cc(C#CC3CC3)ccc2S1(=O)=O | inactive | inactive | inactive |
| CC(C)(C)S(=O)N1Cc2cc(C(=O)NCc3ccc(Oc4ccccc4)cc3)nc(-c3cccc(-c4cccc(F)c4)c3)c2[C@@H]1CCO (some centres not stated) | inactive | active | inactive |
| CC(=CC(=O)OCCCCCCCCC(=O)O)CC1OCC(CC2OC2C(C)C(C)O)C(O)C1O (configuration not stated) | inactive | inactive | active |
| Cc1noc(C)c1S(=O)(=O)Nc1ccc2c(c1)C(=O)N([C@@H](C)CO)C[C@H](C)[C@H](CN(C)S(=O)(=O)c1cn(C)cn1)OCCCC[C@H](C)O2 | inactive | inactive | inactive |
| C[C@@H]1CCCCO[C@H](CN(C)CC2CCCCC2)[C@@H](C)CN([C@H](C)CO)C(=O)c2cc(NC(=O)c3ccncc3)ccc2O1 | inactive | inactive | inactive |
| CC(C)NC(=O)N(C)C[C@H]1OCCCC[C@H](C)Oc2ccc(NS(C)(=O)=O)cc2C(=O)N([C@@H](C)CO)C[C@H]1C | inactive | inactive | inactive |
| COc1ccc2c3c([nH]c2c1)[C@@H](CO)N(C[C@]13CCN(CC1)Cc1ccc(cc1)F)C(=O)Nc1ccc(cc1)F | active | active | active |
| Cc1noc(C)c1NC(=O)N(C)C[C@@H]1OCCCC[C@@H](C)Oc2ccc(NC(=O)Nc3ccc4c(c3)OCO4)cc2C(=O)N([C@H](C)CO)C[C@@H]1C | inactive | inactive | inactive |
| Cc1cc(C(=O)NN)nn1C | inactive | inactive | inactive |
| CCO[C@H]1OC(C(=O)N2CCN(Cc3ccc4c(c3)OCO4)CC2)=C[C@@H](c2csc3ccccc23)[C@@H]1CCCOC(=O)NCCCCCC(=O)NO | inactive | inactive | inactive |
| COc1ccc(S(=O)(=O)N(C)C[C@H]2Oc3ccc(NS(=O)(=O)c4cccs4)cc3C(=O)N([C@@H](C)CO)C[C@@H]2C)cc1 | inactive | inactive | inactive |
| COc1ccc(NC(=O)N(C)C[C@H]2OCCCC[C@@H](C)Oc3ccc(NC(=O)NC4CCCCC4)cc3C(=O)N([C@H](C)CO)C[C@@H]2C)cc1 | inactive | inactive | inactive |
| C[C@@H]1CN([C@H](C)CO)C(=O)c2cc(C#Cc3ccccc3)cnc2O[C@@H]1CN(C)C(=O)CCN1CCCCC1 | inactive | inactive | inactive |
| C[C@@H]1CN([C@@H](C)CO)S(=O)(=O)c2ccc(C#CC3(O)CCCC3)cc2O[C@@H]1CN(C)C(=O)c1ccncc1 | inactive | inactive | inactive |
| C[C@@H]1CN([C@@H](C)CO)C(=O)c2cc(NC(=O)Nc3ccc4c(c3)OCO4)ccc2O[C@@H](C)CCCCO[C@@H]1CN(C)C(=O)Nc1ccc2c(c1)OCO2 | inactive | inactive | inactive |
| COc1ccc2ccccc2c1-c1c(OC)ccc2ccccc12 | inactive | inactive | inactive |
| C[C@@H](NC(=O)N(C)C[C@@H]1OCc2ccccc2-c2ccccc2C(=O)N([C@@H](C)CO)C[C@@H]1C)c1ccccc1 | inactive | inactive | inactive |
| CO[C@@H]1CN(C)C(=O)c2ccc(NC(=O)Nc3cccc(Cl)c3)cc2OC[C@H](C)N(C(=O)Nc2c(C)noc2C)C[C@H]1C | inactive | inactive | inactive |
| COCC(=O)N1CC(=O)N2[C@H](CO)[C@H](c3ccc(C#Cc4cccnc4)cc3)[C@H]2C1 | inactive | inactive | inactive |
| C[C@@H]1CCCCO[C@@H](CN(C)C(=O)c2ccncc2)[C@@H](C)CN([C@@H](C)CO)C(=O)c2cc(NC(=O)NC3CCCCC3)ccc2O1 | inactive | inactive | inactive |
| Cc1noc(C[C@@H]2C[C@@H]3CN(S(C)(=O)=O)C[C@@H]3O2)n1 | inactive | inactive | inactive |
| C[C@@H]1CN([C@H](C)CO)C(=O)CCCn2cc(nn2)CO[C@@H]1CN(C)S(=O)(=O)c1ccc(-n2cccn2)cc1 | inactive | inactive | inactive |
| CC(C)NC(=O)N(C)C[C@H]1Oc2ccc(NS(=O)(=O)c3cn(C)cn3)cc2CC(=O)N([C@@H](C)CO)C[C@@H]1C | inactive | inactive | inactive |
| C[C@H]1CN([C@@H](C)CO)C(=O)Cc2cc(NS(=O)(=O)c3cccs3)ccc2O[C@H]1CN(C)S(=O)(=O)c1cn(C)cn1 | inactive | inactive | inactive |
| COc1ccc(S(=O)(=O)N(C)C[C@H]2OCCCC[C@H](C)Oc3ccc(NS(C)(=O)=O)cc3C(=O)N([C@H](C)CO)C[C@H]2C)cc1 | inactive | inactive | inactive |
| CO[C@@H]1CN(C)C(=O)c2ccc(NS(C)(=O)=O)cc2OC[C@@H](C)N(S(=O)(=O)CC(F)(F)F)C[C@H]1C | inactive | inactive | inactive |
| C[C@@H]1CCCCO[C@@H](CN(C)C(=O)c2ccncc2)[C@@H](C)CN([C@@H](C)CO)C(=O)c2cc(NS(=O)(=O)c3ccc(Cl)cc3)ccc2O1 | inactive | inactive | inactive |

| Compound | cytotoxicity call (HSkMC) | cytotoxicity call (HepG2) | growth inhibition call (S. aureus RN4220) |
| --- | --- | --- | --- |
| C[C@@H]1CCCCO[C@@H](CN(C)S(=O)(=O)c2ccc(Cl)cc2)[C@H](C)CN([C@@H](C)CO)C(=O)c2cc(NC(=O)Nc3cccc4ccccc34)ccc2O1 | inactive | inactive | inactive |
| C=C1c2cccc(O)c2C(=O)C2=C(O)[C@]3(O)C(O)=C(C(N)=O)C(=O)[C@@H](N(C)C)[C@@H]3[C@@H](O)[C@H]12 | inactive | inactive | inactive |
| Cc1cncc2cccc(S(=O)(=O)N[C@H]3CN[C@H](C(=O)NN)C3)c12 | inactive | inactive | inactive |
| NC[C@@H]1CC(=O)N(c2ccccc2)C1 | inactive | active | inactive |
| CC(C)NC(=O)Nc1ccc2c(c1)CC(=O)N([C@@H](C)CO)C[C@H](C)[C@H](CN(C)C(=O)Nc1ccc3c(c1)OCO3)O2 | inactive | inactive | inactive |
| C[C@@H]1CN([C@@H](C)CO)C(=O)c2cccc(NC(=O)CCCCCC(=O)Nc3ccccc3N)c2O[C@@H]1CN(C)S(=O)(=O)c1cn(C)cn1 | inactive | inactive | inactive |
| CC(C)NC(=O)Nc1ccc2c(c1)C(=O)N([C@@H](C)CO)C[C@@H](C)[C@H](CN(C)Cc1ccc(-c3ccccc3)cc1)O2 | inactive | inactive | inactive |
| C[C@H]1N(c2cnn(C)c2)C(=O)COC12CCN(S(C)(=O)=O)CC2 | inactive | inactive | inactive |
| O=C(CCCCC(=O)N/N=C/c1cc(I)cc(I)c1O)NO | inactive | inactive | active |
| CCC1C(=O)OCC1Cc1cncn1C.O=[N+]([O-])O (configuration not stated) | inactive | inactive | inactive |
| C[C@H]1CN([C@@H](C)CO)C(=O)c2cccc(NC(=O)Nc3ccc(C(F)(F)F)cc3)c2O[C@@H]1CN(C)C(=O)Nc1ccc(F)cc1 | inactive | inactive | inactive |
| Nc1ccc2[nH]c(=S)sc2c1 | inactive | inactive | inactive |
| O=C(C[C@@H]1CC[C@H]2[C@@H](COC[C@@H](O)CN2C(=O)c2ccccc2)O1)NCCCN1CCOCC1 | inactive | inactive | inactive |
| CC(C)NC(=O)Nc1ccc2c(c1)C(=O)N([C@@H](C)CO)C[C@@H](C)[C@@H](CN(C)C(=O)C1CCCCC1)OCCCC[C@@H](C)O2 | inactive | inactive | inactive |
| C=CCC[C@H](Cc1ccc(F)cc1)C(=O)OC[C@H]1CCCN1C(=O)[C@@H](CC=C)CC(=O)N(CCO)Cc1ccccc1 | active | inactive | inactive |
| C[C@H]1CCCCO[C@@H](CN(C)Cc2ccc(C(F)(F)F)cc2)[C@@H](C)CN([C@@H](C)CO)C(=O)c2cc(NC(=O)Cc3ccccc3)ccc2O1 | inactive | inactive | inactive |
| COc1ccc(S(=O)(=O)N(C)C[C@@H]2Oc3c(NC(=O)Nc4c(C)noc4C)cccc3C(=O)N([C@H](C)CO)C[C@@H]2C)cc1 | inactive | inactive | inactive |
| C[C@H](CO)N1C[C@H](C)[C@H](CN(C)CC2CCCCC2)Oc2ccc(NC(=O)Nc3cccc4ccccc34)cc2C1=O | inactive | inactive | inactive |
| CN1CCN(C(=O)C[C@H]2CC[C@H]3[C@@H](COC[C@@H](O)CN3C(=O)C3CCCC3)O2)CC1 | inactive | inactive | inactive |
| Cc1ccccc1S(=O)(=O)N1C[C@H](O)COC[C@@H]2O[C@H](CC(=O)N3CCN(C)CC3)CC[C@H]21 | inactive | inactive | inactive |
| Cc1noc(C)c1S(=O)(=O)N(C)C[C@@H]1OCCCC[C@H](C)Oc2ccc(NS(=O)(=O)c3cn(C)cn3)cc2C(=O)N([C@H](C)CO)C[C@@H]1C | inactive | inactive | inactive |
| C[C@H](NC(=O)N(C)C[C@H]1OCc2ccccc2-c2c(n(C)c3ccccc23)C(=O)N([C@H](C)CO)C[C@H]1C)c1ccccc1 | inactive | inactive | inactive |
| C[C@@H]1CN([C@H](C)CO)C(=O)c2cc(NC(=O)Cc3ccccc3)ccc2O[C@@H](C)CCCCO[C@@H]1CN(C)C(=O)Nc1cccc2ccccc12 | inactive | inactive | inactive |
| C[C@@H]1CCCCO[C@H](CN(C)C(=O)CCC(F)(F)F)[C@H](C)CN([C@@H](C)CO)C(=O)c2cc(NC(=O)Nc3ccc4c(c3)OCO4)ccc2O1 | inactive | inactive | inactive |
| C[C@@H]1CCCCO[C@H](CN(C)C(=O)Nc2ccc(C(F)(F)F)cc2)[C@@H](C)CN([C@H](C)CO)C(=O)c2cc(NC(=O)NC3CCCCC3)ccc2O1 | inactive | inactive | inactive |
| COc1cccc(NC(=O)N[C@H]2C=C[C@H](CC(=O)N3CCN(C)CC3)O[C@H]2CO)c1 | inactive | inactive | inactive |
| C[C@H](CO)N1C[C@H](C)[C@@H](CN(C)C(=O)Nc2ccc(F)cc2)OCCCC[C@H](C)Oc2ccc(NC(=O)CCCN(C)C)cc2C1=O | inactive | inactive | inactive |
